Kd, ka and kd data for one molecule are collected here from patent publication US9574016B2, “Complex of bi-specific antibody and digoxigenin conjugated to a therapeutic or diagnostic agent” (Hoffmann-La Roche Inc., priority 2009, dated 2017).

The target of assay [1] is siRNA-DIG (Eg5-siRNA-DIG). Put plainly: SPR (Biacore) binding to mono-digoxygenated siRNA. The settings on record: 25° C. A general note: Surface plasmon resonance follows binding to a sensor surface in real time, without labels.
In assay [2] the target is siRNA-(2x)DIG (Eg5-siRNA-(2×)DIG). Nature of the assay: SPR (Biacore) binding to bi-digoxygenated siRNA. Particulars: 25° C.
A further assay relates to DIG-Myoglobin. Nature of the assay: SPR study, binding to DIG-myoglobin. Particulars: analyte DIG-Myoglobin; listed as <DIG>hu2. The protocol:
(§1) For that, binding properties of the recombinant <Dig> derivatives were analyzed by surface plasmon resonance (SPR) technology using a Biacore T100 or Biacore 3000 instrument (GE Healthcare Bio-Sciences AB, Uppsala). This system is well established for the study of molecule interactions. It allows a continuous real-time monitoring of ligand/analyte bindings and thus the determination of association rate constants (ka), dissociation rate constants (kd), and equilibrium constants (KD) in various assay settings. SPR-technology is based on the measurement of the refractive index close to the surface of a gold coated biosensor chip. Changes in the refractive index indicate mass changes on the surface caused by the interaction of immobilized ligand with analyte injected in solution. If molecules bind to immobilized ligand on the surface the mass increases, in case of dissociation the mass decreases. To perform the binding studies capturing anti-human IgG antibody was immobilized on the surface of a CM5 biosensor chip using amine-coupling chemistry. Flow cells were activated with a 1:1 mixture of 0.1 M N-hydroxysuccinimide and 0.1 M 3-(N,N-dimethylamino)propyl-N-ethylcarbodiimide at a flow rate of 5 μl/min. […] A reference control flow cell was treated in the same way but with vehicle buffers only instead of the capturing antibody. […]

The next assay deals with DIG-siRNA2349. Nature of the assay: SPR study, binding to DIG-siRNA2349. Particulars: analyte DIG-siRNA2349; listed as <DIG>hu2. The protocol: as §1, with “antibody. Surfaces were blocked with an injection of 1 M ethanolamine/HCl pH 8.5. To compare the binding of the humanized protein variants with that of the murine <Dig> IgG from the original hybridoma 19-11, capturing anti-mouse IgG antibody was immobilized on the surface of a CM5 biosensor chip in the same fashion as described above for the anti-human IgG antibody. To evaluate the functionality of the recombinant <Dig> derivatives, binding of the recombinant hu<Dig> modules, incl.” for “antibody.”

“And” between values parts separate entries of the source, which are not always exact repeats. Equal entries are not always repeated.

B1: humanized DIG-IgG: recombinant humanized <Dig> IgG defined by Seq. ID. NO. 3, 4, 5 and 6 (protein)
chain 1: QVQLVESGGGLVKPGGSLRLSCAASGFTFSDYAMSWIRQAPGKGLEWVSSINIGATYIYYADSVKGRFTISRDNAKNSLYLQMNSLRAEDTAVYYCARPGSPYEYDKAYYSMAYWGQGTTVTVSS
chain 2: QVQLVESGGGLVKPGGSLRLSCAASGFTFSDYAMSWIRQAPGKGLEWVSSINIGATYIYYADSVKGRFTISRDNAKNSLYLQMNSLRAEDTAVYYCARPGSPYEYDKAYYSMAYWGQGTTVTVSS[human IgG1 constant region not shown]
chain 3: DIQMTQSPSSLSASVGDRVTITCRASQDIKNYLNWYQQKPGKAPKLLIYYSSTLLSGVPSRFSGSGSGTDFTLTISSLQPEDFATYYCQQSITLPPTFGGGTKVEIKR
chain 4: DIQMTQSPSSLSASVGDRVTITCRASQDIKNYLNWYQQKPGKAPKLLIYYSSTLLSGVPSRFSGSGSGTDFTLTISSLQPEDFATYYCQQSITLPPTFGGGTKVEIKRTVAAPSVFIFPPSDEQLKSGTASVVCLLNNFYPREAKVQWKVDNALQSGNSQESVTEQDSKDSTYSLSSTLTLSKADYEKHKVYACEVTHQGLSSPVTKSFNRGEC
modifications: Humanized <dig> VH; Humanized <dig> H-chain; humanized <dig> VL; humanized <dig> L-chain
One may read the Kd as the free concentration of one partner at which half of the binding sites on the other are occupied at equilibrium, for simple one-to-one binding. Read a high Kd as a looser complex. Take B1: the Kd in assay [1] was 12 nM; in assay [2], 0.008 nM; on DIG-siRNA2349 it was 14.5 nM and 15.6 nM. Further, the ka was 620000 M⁻¹ s⁻¹ and 749000 M⁻¹ s⁻¹ with DIG-Myoglobin; 645000 M⁻¹ s⁻¹ and 628000 M⁻¹ s⁻¹ in the assay on DIG-siRNA2349. The kd at DIG-Myoglobin was 0.00982 s⁻¹ and 0.00881 s⁻¹; at DIG-siRNA2349 it was 0.00937 s⁻¹ and 0.0098 s⁻¹.
